Our source for the self-cleavage values is the RNAGym collection of RNA variant scans (doi:10.7554/elife.90254).

The source gives no read counts; variants with many changes may rest on few reads.

B1: LINE1-mini (parent)
chain: GGCAGAGCUCAACACAGCGUGGCAAAGUGGCUGUGGCUAGACUGCC

Variants of B1 are the subject of the series. The series can be described thus: self-cleavage, relative activity (ratio to wild type); higher = more cleavage; in vitro, sequencing; the parent is a self-cleaving ribozyme.
With GGCAGAGCUCAUCAAAGCGUGGUAAAGUGGCUGUGGCUAGACUGCC, the self-cleavage worked out at 0.02. GGCAGAGCUCAUCACAGCGUAGCAAAGUGGCUGUUGCUAGUCUGCC: the self-cleavage was determined as 0.08. In the case of GGCAGAGCUCAGCACAGCGUGGCAAAGUGACUGUGGGUAGACUGCC, the self-cleavage amounted to 0.01. Next, GGCAGAGCUCAUCAGAGCGUGGCAAAGUUGCGGUGGCUAGACUGCC: 0.02.

GGCAGAGCUCAUCACAGCGUGGCAAAGUGGUGGUGUCUAGACUGCC: the self-cleavage was 0.01. Next, GGCAGAGCUCAUCGCAAAGGGGCAAAGUGUCUGUGGCUGUACUGUC: 0.01; GGCAGAGCUCAUCGCUGCGUCGCAAAGUGGCUCUGGCGAGACUGCC: 0.02. Turning to GGCAGAGCUCAUCACAGCGUGGCAAAGCGGCUGUGGCUAAAAAGCC, the self-cleavage was 0.04. The value for GGCAGAGCUCAUCACAGCGUGGCAAGGUGGCUGUGGCUGGACUGCC was 0.02; that for GGCAGAGCUCAGCACAGCGGGGCAAAGUGGCUGUGGCGAGACUGCC was 0.01. The value for GGCAGAGCUCAGCACAGCGGGGCAAAGUGGCUUUGGCAUGACUGCC was 0.03.

As for GGCAGAGCUCAUCACAACGUGGCAAAGUGGCUGUGGCUAGACUGUC, the self-cleavage is 0.04. The value for GGCAGAGCUCAUAACAGCAUUGCAAAGUGGCGGUGGGUAGACUGCC was 0.01. In the case of GGCAGAGCUCAUCACCGCGUGGCAAAGUGGCUGUGGCUAAAGUGCC, the self-cleavage is 0.08.

Regarding GGCAGAGCUCAUCACAGCGUGGCAAAGCGGCUGUGACUACACUGCC, the self-cleavage worked out at 0.16.

On to GGCAGAGCUCAUCUCAGCGUGGCAAAGUGGCUGUGGCUAGACUUCC, for which the self-cleavage is 0.06. Next, GGCAGAGCUCAGCACAGCGUGGCAAAGUGGCUGUGCCUAGACUGCA: 0.01; GGCAGAGCUCAGCACAGCGUGGCAAAGUGGCUUUGGCUCGACUGCC: 0.03. As to GGCAGAGCUCAUCCCUGCGUGGCAAAGUGGCUGUGGCUCGACUGCC, the self-cleavage turned out to be 0.09. The value for GGCAGAGCUCAUCUCAGCGUCGCAAAGUGGCUGUGGCUAGACUGCC was 0.68; that for GGCAGAGCUCAGCACAGCGUGGCAAAGUGGCUGGGGCUGGACUGCC was 0.01. Next, GGCAGAGCUCAUCACAGCGGGGCAAAGUGGCUGUGGCUAGAGUGCC: 0.01. The value for GGCAGAGCUCAUCACAGCGAGGCAAAGUGGCUCUGGCUAGACUGCC was 0.01; that for GGCAGAGCUCAGCACAGCGUGGCAAAGCGUCUGUGGCUAGACUGCC was 0.01; that for GGCAGAGCUCAUCUCAGCGUCGCAAAGUGGCUGUGGGUAGACUGCC was 0.02. Turning to GGCAGAGCUCAUCGCAGAGUGGCAAAGUGGCUAUGGCGAGACUGCC, the self-cleavage came to 0.02. Take GGCAGAGCUCAUCACAGCGUGGUAAAAUGGCUGUGGCUAGACUGCC: the self-cleavage was 0.97. The value for GGCAGAGCUCAUCACAGCGUGGCAAAGUGGUUGUGGCUAGAUUGCC was 0.08; that for GGCAGAGCUCAGCACAGCGGGGCAAAGUGGUUGUGGCUAGGCUGCC was 0.01; that for GGCAGAGCUCAAACCAGCGUGGCAAAGUGGCUGAGGCUAGACUGCC was 0.03.

For GGCAGAGCUCAUCACAUCGUGGCAAAGUGGCUGGGGCUAGACUGCC, the self-cleavage worked out at 0.01. Turning to GGCAGAGCUCAUCACAGCGUGGCAAAGUGGCUGAGGCUCUACUGCC, the self-cleavage is 0. The value for GGCAGAGCUCAUCACAGCGUGGCAGCGUGGCUGUGGCUAGACUGCG was 0.3. For the variant GGCAGAGCUCAUCACGGCGUGGCAAAGUGGCUGUUGCUAGACUGCC, the self-cleavage was 0.12. Next, GGCAGAGCUCAUCACAGCAUGGCAAAGUGACUGAGGCCAGACUGCC: 0.02; GGCAGAGCUCAUCACAGCGUGACAAAGUGACUGUCGCUAGACUGCC: 0.01.

As for GGCAGAGCUCAUCACAGCGUGGCACAGUGGCUGUGGAUAGACUGCC, the self-cleavage was determined as 0.02. The value for GGCAGAGCUCAUCACAUCGUGGCAAAGUGGUGGUGGCUAGACUUAC was 0.01; that for GGCAGAGCUCAUCACACCGUGGCAAAGUGGCUUUGGCUAGACUGCC was 0.05; that for GGCAGAGCUCAUCACAGCGUGGCAAAGUGGCUGUUGCUAGCCUGCC was 0.09. Next, GGCAGAGCUCAUCACAGCGCGGCAAAGUGGGUGUGGCUAGACUGCC: 0.01.

With GGCAGAGCUCAUCACAGUGUGGCAAAGUGGCUGUGGCCGGACUGCC, the self-cleavage was determined as 0.02.

Take GGCAGAGCUCAGCACAGCGUGGCAAAGUGUCUGUGGCUAGCCUGCC: the self-cleavage amounted to 0.02. For GGCAGAGCUCAUCACAGCGUGGAAAAAUGGCUGUGGCUAGCCUGCC, the self-cleavage is 0.01. For GGCAGAGCUCAUCACCGCGUGUCAAAGUGGCUGUGGCUAGACUGCC, the self-cleavage turned out to be 0.02.

Take GGCAGAGCUCAUCUGCGGGUGGCAAAAUGGCUGUGGAUAGACUGCC: the self-cleavage was found to be 0.02. Next, GGCAGAGCUCAUCAUAGCGUGGCAAAGUGUCUGUGGGUAGCCUGCC: 0.01; GGCAGAGCUCAUCACAGCGUGGCAAAGUUACUGUGGCUAGACUUCC: 0.12; GGCAGAGCUCAGCACAGCGUGGCAAAGUGGCUGUGGCUAGACCUCC: 0.03. The value for GGCAGAGCUCAUCACAGCGUGGCAAAGUCCCUGUGGCUAGACUGCC was 0.06; that for GGCAGAGCUCAUCACAGCGUGGCAAAGUCUCUGUGGCUAGACUGCC was 0.13. Turning to GGCAGAGCUCAGCACAGCGUGGCAAAGUCGCUGUGGCUAAACUGUC, the self-cleavage came out at 0.04. Next, GGCAGAGCUCAUCACAACGUGGCAAAGUUGCUGUGGCUAGACUUCC: 0.05; GGCAGAGCUCAUCAGAGCGUGGGAAAGUGGCUGUGGCUAGACUGCC: 0.03; GGCAGAGCUCAUCACAGCGUAGCAACGUGGCUGUGGCUAGACUGUC: 0.4.

As to GGCAGAGCUCAGCACAGCGUGGCAAAGUGGCUGGCGCUAUACUGCC, the self-cleavage is 0. The value for GGCAGAGCUCAUCACAGCGUGGCAAAGUAGCUGUGGUUAGACUGCC was 0.02; that for GGCAGAGCUCAUCACAGCGUGGCAAAGUAGCUGUGGAUAGACUGCC was 0.05. The value for GGCAGAGCUCAUCACAGCGUGGCAAAGUCGCUGUCGCUAGACAGCC was 0.01; that for GGCAGAGCUCAUCACAGCGUGGGUAAGUGGCUGUGGCUAGACUGCC was 0.12; that for GGCAGAGCUCAGCACAGCGCGGCACAGUGGCUGUGGCUAAACUACC was 0. The value for GGCAGAGCUCAUCACAUCCUGGCAAAGUGGCUGUGGCUAGACUGCC was 0.1; that for GGCAGAGCUCAUCACUGCGUGGCAAAGUGGCUGUUGCUAGACUGCC was 0.02; that for GGCAGAGCUCAUCACUGCGUGGCACAGUUGCUGUGGCUAGACUGCC was 0.07. Regarding GGCAGAGCUCAUUACAGCCUGGCAAAGGGACUGUGGCUAGACUGCC, the self-cleavage was determined as 0.06. Next, GGCAGAGCUCAUCACAGCGUGGCAAAGUGGCUGUCUCUAGACUGCC: 0.04; GGCAGAGCUCAUCACAGCGUGGCAAAGUGGCUUUGGCUAGACGGCG: 0; GGCAGAGCUCAUCGCAACUUGGCAAAGUGGCUGUGGCUAGACUGCC: 0.02. The value for GGCAGAGCUCAUCACAGCGUGGCAAAGUCGCUUUGGCUAGACUGCC was 0.06. Next, GGCAGAGCUCAUCACAGAGUGGCAAAGUUGCUGUGGCUAUACUGCC: 0.08.

On to GGCAGAGCUCAGCACAGCGUGGCAAAUUGGUUGUGGCUAGACUGCC, for which the self-cleavage was determined as 0.02. With GGCAGAGCUCAGCACAGCGAGGGAAAGUGGCUGUUGUUGGACUGCC, the self-cleavage came to 0. Take GGCAGAGCUCAUCACAGCUUGGCCAACUGGCCGUGGAUAGACUGCC: the self-cleavage amounted to 0.02.

For the variant GGCAGAGCUCAUCACAGCGAGGCAACGUGGCUGUGGCUAGACUGCC, the self-cleavage is 0.61.

In the case of GGCAGAGCUCAGCACAGCGUGGCAAAGUGGCUGGGGCUAGACAGCC, the self-cleavage came out at 0.06. Regarding GGCAGAGCUCAUCACAGCGUGGCGAACUGGCUGUGGCUACACUGCC, the self-cleavage is 0.04. The value for GGCAGAGCUCAUGAUAGCGUGGCAAAGUGGCUGUGGCUAGACUGCC was 0.03; that for GGCAGAGCUCAGCACAGCGUGGCAAAGUGGCUGUGGCGAUACUGCC was 0.05.

For the variant GGCAGAGCUCAGCACAGCGUGGCAAAGGGGCUGUGGCUAGACUGGC, the self-cleavage amounted to 0.02. Next, GGCAGAGCUCAUCACAGCGUGACAAAGUGGCUGUGGCAAGACUGCC: 0.09; GGCAGAGCUCAUCACAACCUGGCAAAGUGGCUGUGUAUAGACUGCC: 0.

Regarding GGCAGAGCUCAUCACAUUGUGGCAUGGUGGCUGUGGCUAGACUGCC, the self-cleavage was 0.02. Next, GGCAGAGCUCAUCACAACGUGGCAAAGUGGCUGUGGCUAGACUACC: 0.05. Turning to GGCAGAGCUCAUCACAGCCUGGGAAAGUGACUGUGGGUAGACUGCC, the self-cleavage came out at 0.01.

GGCAGAGCUCAGCACAGCGAGGCAGAGUGGCGGUGGCUAAACUGCU: the self-cleavage came to 0.01. Next, GGCAGAGCUCAGCACAGCGUGGCAAAGUGGCUGUGACUCGACUGCC: 0.03; GGCAGAGCUCAUCACAGCGUGGAAAAGUGGCUGUGGCUAGACUGCU: 0.57; GGCAGAGCUCAGCACAGCGGGGCAAAGUGGCUGUGACUAGACUGCC: 0.02. The value for GGCAGAGCUCAUCACUGCGAGGCAAAGUGGCUGUGGCUAGACUGCC was 0.13; that for GGCAGAGCUCAUCACAGCGUGGCAAAGUGAGUCCGGCUAGACUGCC was 0.03. Next, GGCAGAGCUCAUCACAUCGUGGCAAAGUGGCUGUGGCUAGACUGGC: 0.04; GGCAGAGCUCAUCACAGCGUGCCAAAGUGGCUAUCGCUAGACUACC: 0.01; GGCAGAGCUCAGCACAGCGUGGCAAAUUGGCUCUGGCUAGACUGCC: 0.03. As to GGCAGAGCUCAUCAAGGCGUGGCAAAGUGGCUGUGGCUAGACUGCC, the self-cleavage is 0.02.

In the case of GGCAGAGCUCAUCCCAGCGUGGCAAAGUGGCUGUGGCUUGACUGCC, the self-cleavage was 0.06. With GGCAGAGCUCAUCACAGUAUGGCAAAGUGGCUGUGGCUAGACUGCC, the self-cleavage came out at 0.17. Next, GGCAGAGCUCAUCACAGCGUAUCAAAUUGGCUUUGGCUACACUGCU: 0; GGCAGAGCUCAUCACAGCGGGGCAAAUUGGCUGUGGCUAGACUCCC: 0.04. The value for GGCAGAGCUCAUCGCAGCGUAGCAAAGUGGCUGUGGCUAGACUCCC was 0.1; that for GGCAGAGCUCAUCACAGCGUGGCAAGGUGGCUGUGGCUAUACUCCC was 0.03; that for GGCAGAGCUCAGCACAGCGUGGCAAAGUGUCUGAGGCUAGACUGCC was 0.04. Next, GGCAGAGCUCAUCACAGCGUGGCAAAGAGGCUGUAGCUAGACUGCC: 0.03. In the case of GGCAGAGCUCAUCACGGCGUGGCAGAGUGGCUGUGGCUAGACUCCC, the self-cleavage turned out to be 0.05.

Turning to GGCAGAGCUCAUCACAGCGUGUCAAAGUGGGUGUGGCUAGACUGCC, the self-cleavage was 0.02. The value for GGCAGAGCUCAUGACAGCGGGGCAAAGUGGCUGUGGCUAGACUGCC was 0.03. In the case of GGCAGAGCUCAUCAUUGCGUUGCAAAGUGGCUGUGGCUAGACUGCC, the self-cleavage came out at 0.02.

In the case of GGCAGAGCUCAAACCAGCGUGGCAACGUGGUUGUGGCUAGCCUGCC, the self-cleavage came to 0. The value for GGCAGAGCUCAGCACAGCGUGGCAAAGUGGCUGUGGCAAGAAUGCC was 0.02; that for GGCAGAGCUCAGCACAGCGUGGCAAAGUGGCUGAGGCUAUACUGCC was 0.02. In the case of GGCAGAGCUCAUCACAGCGUGGCAAAGUCUGUGUGGCCAGACUGCC, the self-cleavage is 0.01. Next, GGCAGAGCUCAAAGCAGCGUGGCAAAGUGGCUGUGGUUAGACUGCC: 0.12; GGCAGAGCUCAUAACAGCGUGGCAAAUUGGCUGUGGCUACACUGCC: 0.02.
